Reference: the RNAGym collection of RNA variant scans (doi:10.7554/elife.90254)
Read counts are not given, so values of variants with three or more changes are uncertain.

B1: LINE1-full (parent)
chain: UACGUAGGUGGUUUUCCCCUGAUAGUGCUAAGGGGGCCUGGAAGUUUGGACUGGGCAGAGCUCAACACAGCGUGGCAAAGUGGCUGUGGCUAGACUGCCUCUCUGGAUUCCUCGUCACUCAGCAGGGCAUCUCUGAGAGAAAUGCC

Variants of: B1
Assay: self-cleavage, relative activity (ratio to wild type); higher = more cleavage; in vitro, sequencing; the parent is a self-cleaving ribozyme

Variant | self-cleavage
U46C A121U G126A | 1.8
A78C U102A U115C | 1.95
G11A A69U U143C | 0.08
U13C G55A A57G A67G A77U | 0
U13C U45C A117G U132C | 0
A6U U91C A140G | 0
A43G A77C A142C | 0.61
A65G A69G A78G A141G | 0.3
A77U A117G A142G | 1.18
A24G U87A A117C | 0
U12G A22G U46C A138G | 1.7
U23A G49A U52A | 1.61
U9C U15A C84G | 0.41
U14C A117U A136G | 1.2
A42G U45A A59U A77U A94G | 1.27
U47C U102A A138G | 2.53
C37U U73C U119C | 1.7
U26C U62C C118A U130C | 0
G49U A78G U134C | 1.04
A30C U104C A117C A142G | 0
U13C U47A A67G A94C | 0.22
U46C A78G U115C | 1.43
A30G A42G A69G U119C | 0
U26C U45C U47C U81A | 1.07

Variant | self-cleavage
U20C A22G U47A A124G | 0.97
A2G U15C U102C | 0.34
U52C A57G U119A | 0.49
A65U U96C G144A | 0.05
U45C A69G A79G | 0
C38U A43G U91C A94U | 0.5
A2U A22G A94U | 0.53
A2G A42G A77G U108G C113U U130A | 1.72
A43G A69G A107G | 0.71
U14C U47C A77U | 0.83
U15C G70U A121G U130C A138G | 0.06
A6G C28U U130G | 1.06
G36A U47C U73C G125A | 2.27
G21U A43G U47C U85C | 0
U62A U108C A136G | 0.44
U14C A124G A141G | 0.98
U13C U26A A107U U132C | 0.81
U26C A57G U115C | 0
G32A A107G U132A | 1.46
U15C U26A A124G | 0.61
A59G U91A U132C | 0.08
G10A U12G U104A U115G | 0.81
U100C U109C U115C | 0
A22U A78G U102C U104A A140G | 1.13

Variant | self-cleavage
U23A G32A A43U A79G U115C | 1.65
A6U G35U A43G | 1.07
G88U G114A A121G | 0.04
U14A A64U A67G | 0.08
U13C A69U A141G C145U | 0.13
U13C G74A U109C U119C A129U | 0.81
A43G A57U C76A | 0.08
U5A U23A C28A G48C A64U G75U C98G U115C A138G | 0.05
A22G A50U A64U U130C | 0.58
U85C G127C A142G | 0.36
A43U U134A A142C | 0.74
A42G A67U U115C | 0.23
U91C A129G U130A | 1.45
U15C G82A A121G | 2.09
C63U A65G A79G | 0
U73G A78G U109C | 0.35
U9C U13C A78G A117U | 0.77
U12A U46A U62C A69U U85C | 0.16
U39C U46A A124G G127A | 0.87
A67U A117G A121U | 0.13
U134C G135C A136U | 0.77
U13A A57G A94G A140G | 0
G86U A107G U112G | 0.08
G10A U14A A77U U85C A136U | 0.37

Variant | self-cleavage
G36A A117U A138G | 1.89
A65G A94C U100C | 0
U12G U23A A138U U143A | 2
U29C C37U A140G | 0.79
U20A G97C U119C | 1.01
C71U A117U U143C | 1.25
U13C U45A A78G U87A A124U | 0.1
U45C C131A U132C | 1.65
A22G A31U U45C C66U | 0.15
U20A A67G A77G | 1.07
U14C U26A A138G | 1.34
C38G G41A A67G U104A | 0.24
U15C A79U A141U | 0.7
A50G C71A A92G U100A U102A | 0
G60A A67U A78G | 0.05
U9C U23C U62C C118U | 0.18
U14C U20C G80U U112C | 1.24
U9C U12C A43G U52G | 0.84
U39C U87A A117G A138U | 0
A77U A129U A140G | 0.79
U15A A69U A124G | 0.17
U46C G86A A107G | 0.17
U20C U81C U102C A140U | 1.1
A57U A69U G93A | 0.05

Variant | self-cleavage
A64G G126U A129G U143C | 0.45
U14A G88A U112C A121U | 0.03
U5A A43G G72U U109C | 0.41
G34A A64U A124U | 0.21
U15A A77G C99A A124G | 0.64
U1C U23C U115C U119C | 0.84
U23A A64U A140G | 0.49
U13C A50U A78G | 0.62
G4A U14C U112C | 0.84
U29C G35U U39G A42G G72C A140G | 0.78
U12C A92G U112C | 0.73
G58U A78U U85C | 0.06
U5A U14C U108C | 1.23
C68U U115A A138C | 0.05
U46C U119G A129G | 2.63
U13C A94G U102C | 0.31
A6G U12C U46A | 0.39
A57U U62C U81G | 0.05
A2U U12C U13C U134C | 0.69
U26A U52C U100C U104A | 1.38
A67G U85C U134C | 0.11
U14C U96A A124G A140G | 0
C37G A79G A117C | 1.02
A57U A59G C90A U134C | 0.03

Variant | self-cleavage
A77U C118U U132C | 1.11
U52C U91C U109A | 0.66
A42G A43G A121G | 0.44
U13C A59G G83C U96C | 0.11
G34A A77G U109C U112C | 1.64
U13A A77G G114A | 2.02
U9A U15C C56U U108C A136G | 0.84
G32A U45C U108C | 0.42
A43G G75U U87C U130A A140G | 0
U13C U115C G135A | 2.15
U14C A42G U62C | 0.14
A42G A67U A107G | 0
U9A U13G U15A U26A | 0.23
U15A U119G G126U | 0.96
A30G A140G U143C | 0.89
U9C C51U G72A | 0.87
U1A C37U U108C | 1.74
U46C G89A U100G G139U | 0
C18U U26A A30C A50G A69G | 0
G7A U13C G80A | 1.67
A22U G25U A121G | 1.03
U20C U132C A142G | 1.6
U13C G44A A67G A77G U81A | 0.97
U20A U47C A124C | 1.39

Variant | self-cleavage
U20G U62C G89U A121G | 0.05
U20G A50G U87A C95U | 0.03
U15C G32U U46C U100C | 2.26
U13C U102C U108C | 0.84
U14G U87C C101U | 0.57
U47C U85G A94C A121U G125U | 0.18
U9A A30G A121G | 0.66
U12G A31G U62C U73C U112A | 0
A59U U62C A142G | 0.03
G49A A59G G89A | 0.03
U9A A43U U62C | 0.12
G32U A42G C56U A67U U87C | 0.02
A24G A77U U104C G126A | 1.69
U14C U26C A65G G127A A141G | 0.17
G35A U39A U115C | 1.2
U14C A67C A79G U100C | 0.92
U26C A77U U115C | 1.63
U14C A121G G122U | 1.98
C37G U119C A121G | 1.84
G34A U62G A79G | 0.05
U14C U39A U46A A142G | 1.35
A6U A67U U108C C113U | 0.26
G10A U132C A136C | 0.95
